± gives the standard deviation of the averaged measurements. In all, about 33,000 sequences were measured (“E-score (dimensionless, -0.5 to 0.5)”: median about -0.046, highest 2% from about 0.36 on). This is one part of the list.

We go through 109 sequences from the supplement of paper PMC4166925.

This assay deals with T1, SpTbr T-box DNA-binding domain (GST fusion).
T1 sequence: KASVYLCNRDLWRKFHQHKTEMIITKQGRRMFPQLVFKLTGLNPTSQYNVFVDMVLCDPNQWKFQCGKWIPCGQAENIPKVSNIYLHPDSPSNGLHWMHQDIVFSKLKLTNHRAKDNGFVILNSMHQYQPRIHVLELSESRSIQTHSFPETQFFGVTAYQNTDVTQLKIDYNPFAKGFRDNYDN
The assay is described as follows: PBM E-score of 8-mer (E-score (dimensionless, -0.5 to 0.5)); Tbr is Tbrain of the sea star Patiria miniata (Pm) or the sea urchin Strongylocentrotus purpuratus (Sp); higher = stronger binding preference; most listed sequences are background and not binding sites. Particulars: the construct has about 5 more residues each side. Summed up:
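Primer extension turned Universal Agilent oligonucleotide arrays double-stranded. They were incubated with 200 nM protein in PBS (pH 7.5); the protein was a GST-fused Tbr T-box DNA-binding domain expressed in BL21 E. coli at 20 °C and purified on glutathione. Every ungapped 8-mer was scored from the scanned, quantified probe intensities, and the Universal PBM Analysis Suite gave each an enrichment E-score averaged over duplicate arrays.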
With CGATAGCC, the “PBM E-score of 8-mer” value was -0.124 ± 0.035.
The result for AGGTGAAT reads 0.0974 ± 0.03; that for ACATCCAG, 0.11 ± 0.03.
As for TGTATGAA, the figure is -0.1868 ± 0.00056; as for AACTTCAT, -0.0326 ± 0.0097; as for GGGATTCA, -0.198 ± 0.042.
As for CCTGTTCG, the figure is 0.0983 ± 0.041; as for CTCGTATA, -0.142 ± 0.0069; as for AGAGAAAC, -0.203 ± 0.065.
On to CCAATGCA, for which the “PBM E-score of 8-mer” value is -0.17 ± 0.014.
GTAAACGA: the “PBM E-score of 8-mer” value is 0.0262 ± 0.028.
In the case of AACCGGCC, the “PBM E-score of 8-mer” value is -0.307 ± 0.021.
Turning to GTGACTGA, the “PBM E-score of 8-mer” value was determined as 0.219 ± 0.0086.
On to GCGAGAAA, for which the “PBM E-score of 8-mer” value was 0.342 ± 0.0013.
The result for CTGGGGCA reads 0.035 ± 0.018; that for TAACGTCA, 0.00157 ± 0.054.
Consider AGAACCCC, for which the “PBM E-score of 8-mer” value turned out to be 0.0318 ± 0.019.
Consider AAGGCGCA, for which the “PBM E-score of 8-mer” value worked out at 0.164 ± 0.054.
As for CAATGAGG, the figure is -0.159 ± 0.043.
The result for AGTGCTAT reads 0.243 ± 0.079; that for CAATAGGC, -0.129 ± 0.012.
As for CTGTATGC, the figure is -0.0634 ± 0.0013.
Turning to GAAAGATC, the “PBM E-score of 8-mer” value was -0.091 ± 0.048.
On to GGGGGGAA, for which the “PBM E-score of 8-mer” value is -0.289 ± 0.021.
As for GAGGGGCA, the figure is -0.0623 ± 0.054; as for GGAAGGTA, -0.118 ± 0.022; as for GAGTAACC, -0.27 ± 0.048.
For ATGACTAC, the “PBM E-score of 8-mer” value is -0.124 ± 0.034.
Consider CTAAGCGA, for which the “PBM E-score of 8-mer” value is -0.0129 ± 0.077.
The result for CCAGTAAG reads -0.0356 ± 0.038.
As for GCTCCTAC, the figure is 0.0646 ± 0.0047; as for GCGCAGCA, -0.0875 ± 0.074; as for CATGTCGC, 0.295 ± 0.022.
The result for AGCTAGGC reads -0.0248 ± 0.034.
Take ACGTCCCA: the “PBM E-score of 8-mer” value amounted to 0.128 ± 0.051.
For the sequence ACTGCGAA, the “PBM E-score of 8-mer” value amounted to 0.332 ± 0.018.
AGGGTAGA: the “PBM E-score of 8-mer” value was -0.123 ± 0.013.
The result for GGTACGGA reads -0.168 ± 0.037; that for AGCCCCCG, -0.0604 ± 0.015.
As to ACAAGATA, the “PBM E-score of 8-mer” value was -0.0688 ± 0.057.
Consider CGCCAACG, for which the “PBM E-score of 8-mer” value is 0.249 ± 0.0059.
As for GGACGGAA, the figure is -0.196 ± 0.042.
In the case of GCAGCGAC, the “PBM E-score of 8-mer” value stood at 0.0569 ± 0.0088.
The result for GGTTGCCA reads 0.0502 ± 0.059.
As for ACTGGCGC, the figure is 0.15 ± 0.073.
The result for CCCTTCTA reads -0.0119 ± 0.062.
As to GGCACAGA, the “PBM E-score of 8-mer” value was -0.0765 ± 0.08.
The result for AGCCGCCT reads -0.0151 ± 0.081; that for CGCGGACG, 0.218 ± 0.043; that for ACTCTGAT, -0.159 ± 0.032.
As for ACGCTTTG, the figure is 0.146 ± 0.01; as for GCTATCCC, -0.0867 ± 0.066; as for CAGCCTAG, -0.0894 ± 0.0031.
As to AAGCAAAT, the “PBM E-score of 8-mer” value is -0.22 ± 0.038.
ATCACGAG: the “PBM E-score of 8-mer” value was determined as 0.158 ± 0.036.
As for AGGACCAG, the figure is -0.213 ± 0.0063.
Regarding AGCGTAAG, the “PBM E-score of 8-mer” value is -0.0572 ± 0.008.
The result for ATTGAACG reads -0.256 ± 0.016; that for ATCGTTGC, -0.00439 ± 0.021; that for CTGGTAAA, -0.036 ± 0.055.
On to AGGTAGAG, for which the “PBM E-score of 8-mer” value was -0.105 ± 0.087.
As for CGGCAGTA, the figure is -0.1505 ± 0.00081; as for ACAGCGAC, 0.0384 ± 0.044; as for ATTCCCGG, -0.177 ± 0.074.
In the case of TTAAGAAA, the “PBM E-score of 8-mer” value was -0.127 ± 0.016.
Turning to AAAAATAA, the “PBM E-score of 8-mer” value is -0.125 ± 0.075.
With CACGTGGG, the “PBM E-score of 8-mer” value turned out to be 0.14 ± 0.023.
Regarding AGAAAATA, the “PBM E-score of 8-mer” value is 0.0356 ± 0.13.
As for CCCGGTCC, the figure is -0.235 ± 0.039.
The result for GCTCAAGC reads -0.247 ± 0.098; that for AAGCTTGC, 0.118 ± 0.012.
As for GGACGCTA, the figure is 0.00335 ± 0.09; as for CCGTAGAA, -0.35 ± 0.015; as for ACCGCGAC, 0.0643 ± 0.075.
With GGCCCATA, the “PBM E-score of 8-mer” value was -0.384 ± 0.1.
As for ATACGGAA, the figure is -0.223 ± 0.036.
The result for CTAGATAG reads -0.156 ± 0.034.
With ACCTGCCT, the “PBM E-score of 8-mer” value amounted to 0.00297 ± 0.084.
As for CCGATCGA, the figure is -0.0327 ± 0.037; as for AGTCACGC, 0.3794 ± 0.0033.
In the case of TCCCAGGA, the “PBM E-score of 8-mer” value was -0.155 ± 0.054.
The result for GATAGAAA reads -0.0476 ± 0.0012; that for AAATCTTC, -0.184 ± 0.031; that for GAATTCCA, 0.00328 ± 0.042.
For the sequence ACTTGGGC, the “PBM E-score of 8-mer” value was determined as 0.0268 ± 0.1.
As for CCTAAGAG, the figure is -0.381 ± 0.025.
For AGAGAACC, the “PBM E-score of 8-mer” value was -0.22 ± 0.061.
TGGCCCCA: the “PBM E-score of 8-mer” value was found to be 0.136 ± 0.045.
The result for AGAGAACA reads 0.00498 ± 0.081; that for ACATAGCC, -0.224 ± 0.018; that for ATTCCCGC, 0.0284 ± 0.028.
As for CCCGCTGA, the figure is 0.0266 ± 0.031; as for AGGAGCCG, 0.145 ± 0.016.
As to CCCTATTC, the “PBM E-score of 8-mer” value is -0.098 ± 0.02.
As for AGGCAGAG, the figure is -0.158 ± 0.03; as for AACTATTC, -0.058 ± 0.029.
As for ACTCCACC, the figure is -0.0731 ± 0.091.
Consider GGTGGTCA, for which the “PBM E-score of 8-mer” value is 0.0202 ± 0.028.
The result for TGTGGAAA reads 0.189 ± 0.046; that for ATCTTTTC, -0.076 ± 0.041.
In the case of CACCTCGC, the “PBM E-score of 8-mer” value turned out to be 0.439 ± 0.012.
The result for AGTTATTG reads -0.116 ± 0.024.
For CAAGCGTA, the “PBM E-score of 8-mer” value is -0.0764 ± 0.029.
For the sequence AAGCCCTA, the “PBM E-score of 8-mer” value was -0.219 ± 0.0039.
As for CTTAACAC, the figure is 0.429 ± 0.017; as for CCCTGCAA, -0.16 ± 0.039; as for ACGGGAGT, 0.0565 ± 0.039.
Turning to CACATTCC, the “PBM E-score of 8-mer” value worked out at 0.139 ± 0.02.
As for CCCATAGG, the figure is -0.162 ± 0.032.
